# In PubChem BioAssay AID602310 (National Center for Advancing Translational Sciences (NCATS), 2012):
# Values joined by “and” are separate entries in the source; they are usually repeats but may differ in a detail not shown here. Equal values may be shown once. About 310 (0.076%) of roughly 410,000 compounds were called active. The inconclusive results got no clear call from the source; some entries with a clear call stand among them for comparison. Calls come from the whole dose curve; as a rule, active = well fitted curve in the direction sought with a large enough effect; inconclusive = small, poorly fitted or top-dose-only effect; inactive = flat fitted curve, though single readings scatter. Where the call is inconclusive, the potency comes from a doubtful curve fit.
# Biological target: DNA dC->dU-editing enzyme APOBEC-3G (Homo sapiens) (UniProt Q9HC16)
# Assay: qHTS for Inhibitors of Vif-A3G Interactions: qHTS; note: nearly all actives have a fitted effect of over 60% in size;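 for activity, negative = active: hits raise eYFP signal because A3G escapes Vif-driven loss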
# Conditions: HeLa A3G-eYFP + Vif (tagged APOBEC3G with the HIV-1 protein that degrades it), YFP fluorescence, overnight; series mostly up to 46.1 µM; activity, negative = active: at the top concentration
# Outline: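 Read-out is eYFP fluorescence (Ex 488/Em 500-530) from Vif-expressing HeLa A3G-eYFP cells; more signal means A3G escaped Vif-mediated degradation. Cells plated overnight, compound pinned in, incubated overnight at 37 deg C.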
# % is set by controls: 0 for no effect and ±100 for the full control effect; potency is the fitted concentration of half-maximal effect; tags give direction and shape of the fitted curve.
# Chain of UniProt Q9HC16 (Q9HC16 whole entry, looked up): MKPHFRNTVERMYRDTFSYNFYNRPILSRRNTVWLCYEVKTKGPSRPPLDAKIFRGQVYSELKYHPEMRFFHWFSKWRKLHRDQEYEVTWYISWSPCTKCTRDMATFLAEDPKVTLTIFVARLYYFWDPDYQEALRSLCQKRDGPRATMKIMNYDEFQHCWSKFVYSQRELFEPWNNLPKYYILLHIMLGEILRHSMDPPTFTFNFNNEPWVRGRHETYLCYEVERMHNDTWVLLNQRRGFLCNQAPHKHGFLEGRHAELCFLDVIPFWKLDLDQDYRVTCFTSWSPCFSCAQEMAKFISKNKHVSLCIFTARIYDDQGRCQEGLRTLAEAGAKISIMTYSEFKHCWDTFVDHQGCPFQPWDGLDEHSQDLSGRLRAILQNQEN
Structure (SMILES),Potency,"activity, negative = active"
CN(C)c1ccc(C(I)C(I)c2ccnc3ccccc23)cc1 (stereo unspecified),"inconclusive: 22.4 µM [inhibitor, single point]",
COc1ccc(C2CC(c3ccncc3)=NN2c2ccc(S(N)(=O)=O)cc2)cc1 (stereo unspecified),"inconclusive: 6.31 µM [inhibitor, partial curve, poor fit]",
CCC(=NCCc1c(C)[nH]c2ccc(C)cc12)C1=C(O)CC(c2ccccc2)CC1=O (stereo unspecified),"inconclusive: 1.41 µM [inhibitor, full curve, poor fit]",
O=C(Nc1cccc(F)c1)N1CCc2nc(NCc3cccc(Oc4ccccc4)c3)ncc2C1,"inconclusive: 3.98 µM [inhibitor, full curve, poor fit]",
COc1ccc(OC)c(Nc2ncnc3c2cnn3-c2cccc(C)c2)c1,"inconclusive: 2.82 µM [inhibitor, full curve]",
Cc1ccc(C2=NN(C(=O)c3cccs3)C(c3ccccc3O)C2)cc1 (stereo unspecified),"inconclusive: 15.8 µM [inhibitor, partial curve, poor fit]",
CCOC(=O)c1cnc(SCc2nc(N)nc(Nc3ccc(C)cc3)n2)nc1N,,inactive: -16.3%
NNC(=O)c1n[nH]c(=O)c2ccccc12,"inconclusive: 35.5 µM [inhibitor, single point]",
O=C(N/N=C/C(Br)=C\c1ccccc1)c1ccc2nc[nH]c2c1,"inconclusive: 35.5 µM [inhibitor, single point]",
C/C(N)=C(/C#N)C(=O)CSc1ccc2c(c1)OCCO2,,inactive: -0.1%
COCCOC(=O)c1c(N)n(CCCN2CCOCC2)c2nc3ccccc3nc12,,inactive: 0.775%
COc1cc(C2CC(=O)Nc3n[nH]c(-c4ccccc4)c32)cc(OC)c1OC (stereo unspecified),"inconclusive: 10 µM [inhibitor, partial curve]",
COc1cc(OC)cc(C(=O)Nc2ccccc2-c2nnn(CC(=O)Nc3cc(C)on3)n2)c1,"inconclusive: 25.1 µM [inhibitor, single point]",
CCCCCCCC(=O)N/N=C/c1ccc([N+](=O)[O-])o1,"inconclusive: 35.5 µM [inhibitor, single point]",
COC(=O)c1c(C)[nH]c(O)c1C=Nc1ccc(Oc2ccccc2)cc1,,inactive: 1.01%
Cc1ccccc1Cn1nnc2c(=O)[nH]c(C3CCCN(C(=O)c4ccc(C(C)(C)C)cc4)C3)nc21 (stereo unspecified),,inactive: -4.81%
COc1cc(/C=N/NC(=O)c2cc(-c3cccn3C)n[nH]2)cc(OC)c1OC,"inconclusive: 11.2 µM [inhibitor, partial curve, poor fit]",
CCC(C)(C)c1ccc(OCCCC[n+]2cccc(C)c2)c(C(C)(C)CC)c1,,inactive: 1.86%
COc1ccc(CCC(=O)Nc2c(-c3ccc(N(C)C)cc3)[nH][nH]c2=O)cc1,"inconclusive: 22.4 µM [inhibitor, single point]",
CN(C)C(=O)CCc1ccc2c3c([nH]c2c1)[C@]1(CCC2CCCC2)[C@@H](C(=O)N2CCOCC2)C[C@H](CC(=O)NCCC2=CCCCC2)C(=O)N1CC3,"inconclusive: 28.2 µM [inhibitor, single point]",
COCCN(CC(=O)NC1CCCCC1)C(=O)/C=C/C(=O)c1ccc(OC)cc1O,"inconclusive: 8.91 µM [inhibitor, partial curve, poor fit]",
CCN(CC(=O)Nc1ccccc1C(F)(F)F)C(=O)CCSc1ccc(F)cc1,,inactive: -1.77%

Structure (SMILES),Potency,"activity, negative = active"
Cn1ncc(Br)c1C(=O)N1CCc2ccccc21,,inactive: -0.54%
COc1ccc([N+](=O)[O-])c(C=CC(=O)c2ccccn2)c1,"inconclusive: 35.5 µM [inhibitor, single point]",
Cn1nc(C(=O)O)c(=O)n(C)c1=O,,inactive: -0.107%
N#C/C(=C\c1ccc(O)c(O)c1)C(=O)NCCCc1ccccc1,,inactive: -3.73%
CCOc1cc(-c2c(C)c(CC)nc(N)c2C#N)ccc1O,"inconclusive: 20 µM [inhibitor, single point]",
O=C(/C=C/c1ccco1)N1CCc2ccccc21,"inconclusive: 20 µM [inhibitor, single point]",
CC(C)CCn1c(=O)c2cccnc2n(CC(=O)Nc2ccccc2)c1=O,,inactive: -2.75%
COc1ccccc1N=C1NC(=O)/C(=C/c2ccc(N(C)C)cc2)S1,active: 3.98 µM,
CCOC(=O)N1CCN(S(=O)(=O)c2ccc(F)c(C(=O)Nc3ccc(C(C)C)cc3)c2)CC1,,inactive: 1.93%
COC(=O)CCS(=O)(=O)c1nc(-c2ccccc2)cc(C(F)(F)F)n1,"inconclusive: 22.4 µM [inhibitor, partial curve, poor fit]",
CC(C)(C)c1ccc(S(=O)(=O)NCC(=O)Nc2sc3c(c2C(N)=O)CCCC3)cc1,,inactive: 1.54%
C=Cc1ncc(OC)c2c1[nH]c1ccccc12,"inconclusive: 5.62 µM [inhibitor, full curve]",
COc1cc(/C=C2\C(C)=C(C#N)c3nc(N)c(C#N)c(C)c32)ccc1OCC(=O)O,,inactive: 4%
CC(=O)c1c(N2CCCC2)[nH]c(-c2ccccc2)nc1=S,,inactive: -15.8%
CCOC(=O)N/N=C/c1c(F)cccc1F,"inconclusive: 35.5 µM [inhibitor, partial curve, poor fit]",
C#CCN(C[C@@H]1[C@@H](OC(=O)NCCCCCC)[C@@H](OC(=O)NCCCCCC)Cn2c(=O)ccc(=O)n21)S(=O)(=O)c1ccc(C)cc1,"inconclusive: 3.55 µM [inhibitor, partial curve, poor fit]",
CCc1nnc(NC(=O)c2sc3nc4cc(C)ccc4cc3c2N)s1,"inconclusive: 7.08 µM [inhibitor, full curve, poor fit]",
N#C/C(=C/c1cccs1)c1ccccn1,"inconclusive: 10 µM [inhibitor, partial curve]",
O=c1[nH]nc(-c2ccc([N+](=O)[O-])o2)c(=O)[nH]1,,inactive: 2.65%
O=C(Nc1ncc2c(n1)-c1ccccc1CC2)c1ccc(F)cc1,,inactive: 0.386%
O=C1Cc2cc(S(=O)(=O)N3CCN(c4cccc(Cl)c4)CC3)ccc2N1,"inconclusive: 22.4 µM [inhibitor, single point] and inconclusive: 12.6 µM [inhibitor, single point]",
COc1ccc(-c2ccc3c(c2)S(=O)(=O)c2cccc(C(=O)NCc4ccccc4Cl)c2C3=O)cc1OC,,inactive: -2.75%

Structure (SMILES),Potency,"activity, negative = active"
O=C(/C=C/c1ccccc1)c1cc(Br)ccc(=O)c1O,"inconclusive: 11.2 µM [inhibitor, single point]",
O=c1cc(-c2ccccc2)[nH]c2cc(F)ccc12,"inconclusive: 1.58 µM [inhibitor, full curve, poor fit]",
CCN(CC)c1ccc(/C=N/NC(=O)C2CC2)cc1,"inconclusive: 35.5 µM [inhibitor, single point]",
COc1cc2c3cc1OCc1c(O)c(OC)cc4c1C(Cc1ccc(cc1)Oc1cc(ccc1O)CC3N(C)CC2)N(C)CC4 (stereo unspecified),,inactive: 0.333%
O=C(NCc1ccccn1)c1ccc2c(=O)n(CCc3ccccc3)c(=O)[nH]c2c1,"inconclusive: 35.5 µM [inhibitor, single point]",
CCCCN(C)CC(O)Cn1cc(/C=C/C(=O)c2ccc(Br)cc2)c2ccccc21 (stereo unspecified),"inconclusive: 35.5 µM [inhibitor, single point]",
Oc1ccc(/C=N/N=C(c2ccccc2)c2ccccc2)c(O)c1O,"inconclusive: 35.5 µM [inhibitor, single point]",
CC1(C(=O)Nc2cccnc2)Cc2c(-c3ccc4c(c3)OCO4)ccnc2O1 (stereo unspecified),"inconclusive: 20 µM [inhibitor, single point]",
COC1=CC(=O)c2ccccc2C1=O,"inconclusive: 11.2 µM [inhibitor, partial curve, poor fit]",
CCOc1ccc(NC2=CC(=O)C(=O)c3ccccc32)cc1,"inconclusive: 2.82 µM [inhibitor, single point]",
COc1ccc(CNn2c(C)nc3ccccc3c2=O)cc1,"inconclusive: 28.2 µM [inhibitor, single point]",
CCCCN(CCCNC(=O)c1cc(Nc2cccc(SC)c2)nc2ccccc12)Cc1ccccc1,"inconclusive: 35.5 µM [inhibitor, single point]",
COc1ccc(C(=O)NN(C)c2nc(C(F)(F)F)nc3ccccc23)cc1,"inconclusive: 0.562 µM [inhibitor, full curve, poor fit]",
Cc1ccc2c(c1)N(C(=O)CSc1nncn1C)C(C)(C)c1ssc(=S)c1-2,"inconclusive: 22.4 µM [inhibitor, single point]",
O=C1NC(=S)SC1=Cc1cc(Br)ccc1O,,inactive: -11.4%
Cc1ccc2nc(CC(O)(c3ccccc3)c3ccccc3)ccc2c1,,inactive: 2.52%
CCOC(=O)N1CCc2c(sc3c2C(=O)NC(c2ccc(N(C)C)cc2)N3)C1 (stereo unspecified),"inconclusive: 1.26 µM [inhibitor, full curve, poor fit]",
COc1ccc(OC)c(-c2nnc3n2N=C(c2ccc(OC)c(OC4CCOC4)c2)CS3)c1 (stereo unspecified),"inconclusive: 0.282 µM [inhibitor, full curve, poor fit]",
CC(C)(C)c1ccc(Oc2ccc(NC(=O)c3ccccc3C(=O)O)cn2)cc1,"inconclusive: 22.4 µM [inhibitor, partial curve, poor fit]",
Cc1cc(C(=O)N/N=C/c2ccc([N+](=O)[O-])cc2)c2ccccc2n1,"inconclusive: 2.24 µM [inhibitor, partial curve, poor fit]",
O=C1Nc2ccccc2Oc2cc([N+](=O)[O-])cc(Oc3ccccc3)c21,"inconclusive: 35.5 µM [inhibitor, single point]",
O=C(Cc1ccc(-n2cccc2)cc1)NCc1ccccc1Cl,"inconclusive: 4.47 µM [inhibitor, full curve]",
